The list shows a part of the results. Many values rest on one well or one pass, so single values are uncertain.
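Note: cell number obtained by counting DAPI-stained nuclei in high-throughput microscope images with image analysis software, screen run in 1,536-well plates.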

For the first assay, the system named is A375. Briefly: cell count relative to DMSO control; melanoma cells; higher = more viable cells. Conditions: library dose: low library concentration; 72 h.
In the case of `Cc1ccc(Nc2nccc(N(C)c3ccc4c(C)n(C)nc4c3)n2)cc1S(N)(=O)=O` [Pazopanib] + C[C@@H](Oc1cc(-c2cnn(C3CCNCC3)c2)cnc1N)c1c(Cl)ccc(F)c1Cl [Crizotinib] (first compound 0.4 µM, partner dose 0.2 µM), the cell count worked out at 81.2%.
In turn, `CC1(C)CCC(c2ccc(Cl)cc2)=C(CN2CCN(c3ccc(C(=O)NS(=O)(=O)c4ccc(N[C@H](CCN5CCOCC5)CSc5ccccc5)c(S(=O)(=O)C(F)(F)F)c4)cc3)CC2)C1` + NC1(c2ccc(-c3nc4ccn5c(=O)[nH]nc5c4cc3-c3ccccc3)cc2)CCC1 [MK2206] (first compound 0.4 µM, partner dose 0.4 µM) yielded a cell count of 45%.
The molecule `Cc1ccc(Nc2nccc(N(C)c3ccc4c(C)n(C)nc4c3)n2)cc1S(N)(=O)=O` [Pazopanib] + NCC(=O)Nc1ccc(-n2nc(C(F)(F)F)cc2-c2ccc3c(ccc4ccccc43)c2)cc1 [OSU03012] (first compound 0.4 µM, partner dose 1 µM) returned a cell count of 14.5%.
Consider `Cc1ccc(Nc2nccc(N(C)c3ccc4c(C)n(C)nc4c3)n2)cc1S(N)(=O)=O` [Pazopanib] + Cn1c(=O)n(-c2ccc(C(C)(C)C#N)cc2)c2c3cc(-c4cnc5ccccc5c4)ccc3ncc21 [NVP-BEZ235] (first compound 0.4 µM, partner dose 0.004 µM), for which the cell count is 89.3%.
As to `Cc1ccc(Nc2nccc(N(C)c3ccc4c(C)n(C)nc4c3)n2)cc1S(N)(=O)=O` [Pazopanib] + Cn1nnc2c(C(N)=O)ncn2c1=O [temozolomide] (first compound 0.4 µM, partner dose 2 µM), the cell count was found to be 87.9%.
`O=C(/C=C/c1cccnc1)NCCCCC1CCN(C(=O)c2ccccc2)CC1` + Cc1ccc(NC(=O)c2cccc(N(C)C)c2)cc1NC(=O)c1ccc(O)cc1 [ZM336372] (first compound 0.01 µM, partner dose 2 µM) displayed a cell count of 108%.

A further assay has as its system C32. Described as above. The note with it: library dose: low library concentration; 72 h.
For the molecule `CC1(C)CCC(c2ccc(Cl)cc2)=C(CN2CCN(c3ccc(C(=O)NS(=O)(=O)c4ccc(N[C@H](CCN5CCOCC5)CSc5ccccc5)c(S(=O)(=O)C(F)(F)F)c4)cc3)CC2)C1` + CC1(C)NC(=O)N(c2ccc([N+](=O)[O-])c(C(F)(F)F)c2)C1=O [nilutamide] (first compound 0.4 µM, partner dose 1 µM), the cell count is 57.4%.
Same read-out and setting: the same measure for `CC1(C)CCC(c2ccc(Cl)cc2)=C(CN2CCN(c3ccc(C(=O)NS(=O)(=O)c4ccc(N[C@H](CCN5CCOCC5)CSc5ccccc5)c(S(=O)(=O)C(F)(F)F)c4)cc3)CC2)C1` + Nc1ncn([C@H]2C[C@H](O)[C@@H](CO)O2)c(=O)n1 [decitabine] (first compound 0.4 µM, partner dose 0.1 µM): 45.8%; for `CC1(C)CCC(c2ccc(Cl)cc2)=C(CN2CCN(c3ccc(C(=O)NS(=O)(=O)c4ccc(N[C@H](CCN5CCOCC5)CSc5ccccc5)c(S(=O)(=O)C(F)(F)F)c4)cc3)CC2)C1` + CO[C@H]1C[C@@H]2CC[C@@H](C)[C@@](O)(O2)C(=O)C(=O)N2CCCC[C@H]2C(=O)O[C@H]([C@H](C)C[C@@H]2CC[C@@H](OCCO)[C@H](OC)C2)CC(=O)[C@H](C)/C=C(\C)[C@@H](O)[C@@H](OC)C(=O)[C@H](C)C[C@H](C)/C=C/C=C/C=C/1C [everolimus] (first compound 0.4 µM, partner dose 0.02 µM): 64.4%.
Take `O=C(/C=C/c1cccnc1)NCCCCC1CCN(C(=O)c2ccccc2)CC1` + Nc1cccc2c1CN(C1CCC(=O)NC1=O)C2=O [lenalidomide] (first compound 0.01 µM, partner dose 1 µM): the cell count was 87.6%.
Same read-out and setting: the figure for `Cc1ccc(Nc2nccc(N(C)c3ccc4c(C)n(C)nc4c3)n2)cc1S(N)(=O)=O` [Pazopanib] + OCCn1cc(-c2cnc3nnn(Cc4ccc5ncccc5c4)c3n2)cn1 [PF04217903] (first compound 0.4 µM, partner dose 1 µM) is 116%.
The same measure, in the same setting: the figure for `O=C(/C=C/c1cccnc1)NCCCCC1CCN(C(=O)c2ccccc2)CC1` + C[C@@H]1CCN(C(=O)CC#N)C[C@@H]1N(C)c1ncnc2[nH]ccc12 [CP690550] (first compound 0.01 µM, partner dose 1 µM) is 104%; for `Cc1ccc(Nc2nccc(N(C)c3ccc4c(C)n(C)nc4c3)n2)cc1S(N)(=O)=O` [Pazopanib] + C#Cc1cccc(Nc2ncnc3cc(OCCOC)c(OCCOC)cc23)c1 [erlotinib] (first compound 0.4 µM, partner dose 0.8 µM) it is 105%; for `O=C(/C=C/c1cccnc1)NCCCCC1CCN(C(=O)c2ccccc2)CC1` + O=C(O)c1ccc(-c2c[nH]c3ncc(-c4ccccc4)cc23)cc1C1CCCC1 [GSK650394] (first compound 0.01 µM, partner dose 0.16 µM) it is 90.1%.
On the same count and under the same terms, the same measure for `O=C(/C=C/c1cccnc1)NCCCCC1CCN(C(=O)c2ccccc2)CC1` + COc1ccc(Cl)c(Nc2nc3ccccc3nc2NS(=O)(=O)c2cccc(NC(=O)C(C)(C)N)c2)c1 [XL147] (first compound 0.01 µM, partner dose 0.8 µM): 106%.
`O=C(/C=C/c1cccnc1)NCCCCC1CCN(C(=O)c2ccccc2)CC1` + C=CCNC1=C2C[C@@H](C)C[C@H](OC)[C@H](O)[C@@H](C)/C=C(\C)[C@H](OC(N)=O)[C@@H](OC)/C=C\C=C(/C)C(=O)NC(=CC1=O)C2=O [Tanespimycin] (first compound 0.01 µM, partner dose 0.002 µM) yielded a cell count of 83.8%.
As for `Cc1ccc(Nc2nccc(N(C)c3ccc4c(C)n(C)nc4c3)n2)cc1S(N)(=O)=O` [Pazopanib] + Nc1ncn([C@H]2C[C@H](O)[C@@H](CO)O2)c(=O)n1 [decitabine] (first compound 0.4 µM, partner dose 0.1 µM), the cell count amounted to 82.6%.
The same measure, in the same setting: the figure for `CC1(C)CCC(c2ccc(Cl)cc2)=C(CN2CCN(c3ccc(C(=O)NS(=O)(=O)c4ccc(N[C@H](CCN5CCOCC5)CSc5ccccc5)c(S(=O)(=O)C(F)(F)F)c4)cc3)CC2)C1` + C=C(c1ccc(C(=O)O)cc1)c1cc2c(cc1C)C(C)(C)CCC2(C)C [Bexarotene] (first compound 0.4 µM, partner dose 2 µM) is 57.8%; for `O=C(/C=C/c1cccnc1)NCCCCC1CCN(C(=O)c2ccccc2)CC1` + C[C@@H](Oc1cc(-c2cnn(C3CCNCC3)c2)cnc1N)c1c(Cl)ccc(F)c1Cl [Crizotinib] (first compound 0.01 µM, partner dose 0.2 µM) it is 112%; for `CC1(C)CCC(c2ccc(Cl)cc2)=C(CN2CCN(c3ccc(C(=O)NS(=O)(=O)c4ccc(N[C@H](CCN5CCOCC5)CSc5ccccc5)c(S(=O)(=O)C(F)(F)F)c4)cc3)CC2)C1` + CCCCCCCCc1ccc(CCC(N)(CO)CO)cc1 [fingolimod] (first compound 0.4 µM, partner dose 2 µM) it is 40.7%.
The same measure, in the same setting: the same measure for `CC1(C)CCC(c2ccc(Cl)cc2)=C(CN2CCN(c3ccc(C(=O)NS(=O)(=O)c4ccc(N[C@H](CCN5CCOCC5)CSc5ccccc5)c(S(=O)(=O)C(F)(F)F)c4)cc3)CC2)C1` + Cn1cncc1[C@@](N)(c1ccc(Cl)cc1)c1ccc2c(c1)c(-c1cccc(Cl)c1)cc(=O)n2C [tipifarnib] (first compound 0.4 µM, partner dose 0.01 µM): 54.1%; for `O=C(/C=C/c1cccnc1)NCCCCC1CCN(C(=O)c2ccccc2)CC1` + Cn1sc(=O)n(Cc2ccccc2)c1=O [TDZD-8] (first compound 0.01 µM, partner dose 0.4 µM): 91.2%.
`Cc1ccc(Nc2nccc(N(C)c3ccc4c(C)n(C)nc4c3)n2)cc1S(N)(=O)=O` [Pazopanib] + CS(=O)(=O)c1ccc(C(=O)Nc2ccc(Cl)c(-c3ccccn3)c2)c(Cl)c1 [vismodegib] (first compound 0.4 µM, partner dose 1 µM) registered a cell count of 109%.
In the case of `O=C(/C=C/c1cccnc1)NCCCCC1CCN(C(=O)c2ccccc2)CC1` + CN(C)S(=O)(=O)c1ccc2c(c1)/C(=C/c1cc3c([nH]1)CCCC3)C(=O)N2 [SU6656] (first compound 0.01 µM, partner dose 0.4 µM), the cell count is 99%.
Molecule `O=C(/C=C/c1cccnc1)NCCCCC1CCN(C(=O)c2ccccc2)CC1` + COc1cc(Nc2ncc(F)c(Nc3ccc4c(n3)NC(=O)C(C)(C)O4)n2)cc(OC)c1OC [Tamatinib] (first compound 0.01 µM, partner dose 0.4 µM) registered a cell count of 119%.
Still for that read-out and setting: the same measure for `CC1(C)CCC(c2ccc(Cl)cc2)=C(CN2CCN(c3ccc(C(=O)NS(=O)(=O)c4ccc(N[C@H](CCN5CCOCC5)CSc5ccccc5)c(S(=O)(=O)C(F)(F)F)c4)cc3)CC2)C1` + O=C(O)c1ccc2c(c1)nc(Nc1cccc(Cl)c1)c1ccncc12 [CX4945] (first compound 0.4 µM, partner dose 0.4 µM): 40.3%; for `Cc1ccc(Nc2nccc(N(C)c3ccc4c(C)n(C)nc4c3)n2)cc1S(N)(=O)=O` [Pazopanib] + C[C@@H]1CCN(C(=O)CC#N)C[C@@H]1N(C)c1ncnc2[nH]ccc12 [CP690550] (first compound 0.4 µM, partner dose 1 µM): 109%.
Same read-out and setting: the same measure for `Cc1ccc(Nc2nccc(N(C)c3ccc4c(C)n(C)nc4c3)n2)cc1S(N)(=O)=O` [Pazopanib] + Nc1nc(F)nc2c1ncn2[C@@H]1O[C@H](CO)[C@@H](O)[C@@H]1O [fludarabine] (first compound 0.4 µM, partner dose 0.2 µM): 97.6%.

The values are drawn from the supplement of paper PMC4604168 (melanoma cell lines).
